The list shows a part of the results.
tested on: PfAP2-HC AP2 domain (GST-tagged); assay: gcPBM binding intensity (ln(normalized median fluorescence intensity)); higher = stronger DNA binding
How it was run: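 Probes on an Agilent 4 × 180k array were primer-extended, double-stranded and 36 bp long, taken from intergenic genomic regions, with negative controls added. GST-tagged P. falciparum DNA-binding domains from E. coli, about 25 μg on average, were applied to the array for 1 h in 1× PBS containing 1% milk, 0.2 mg/ml BSA, 0.5% salmon testes DNA and 0.03% Triton X-100. Binding intensity, obtained after Alexa488 anti-GST antibody detection and a 488 nm scan, is the highest Masliner-normalised natural-log median intensity across replicate spots of either probe orientation.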

First: CCTTACCAAATAATATGTACACATTTAATGTTATAT [XGTACX_site7840]
Second: TATTATATATTATATAGTACATATTTATGTAAGAGG [XGTACX_site3099]
The “gcPBM binding intensity (ln)” value of the first is lower: 9.7 for the first, 9.88 for the second.

First: CAAAATTAATAAGTCACACACACATATATAATATAT [CACACA_site798]
Second: TATAAAAATATATGCACACAAATAAAAAATTATATA [CACACA_site3629]
The “gcPBM binding intensity (ln)” value of the first is higher: 11 for the first, 9.91 for the second.

Compared with “TATATTTATACAATATGTACATATTATATATATATA [XGTACX_site3098]”, “ATGGTATCTTTTAGAAGTACATCATGATAATAATTT [XGTACX_site5544]” is lower in “gcPBM binding intensity (ln)” value: 9.65 for the first, 9.4 for the second.

First: GATCATAATATTTAAAAGAATATATATAAAAAGGAA [XGTACX_negctrl_site310]
Second: GTATTAATTTATATATGTACATATGTGATATATATA [XGTACX_site5825]
The “gcPBM binding intensity (ln)” value of the first is lower: 9.64 for the first, 9.74 for the second.

Compared with “AAAATAATTATGAATTGTACAGGTTTTTTTTTTTTT [XGTACX_site220]”, “AAAAAATTTTTAAGCACACACATAGATAATATATAT [CACACA_site1555]” is higher in “gcPBM binding intensity (ln)” value: 9.63 for the first, 10.1 for the second.

Compared with “GGAAAAAAAAAAAAAAAACACACGGTACATTCAAAC [CACACA_site2715]”, “TCTACAATTATAATTACACACTATAAAAAAGAAAGA [CACACA_site2984]” is lower in “gcPBM binding intensity (ln)” value: 9.75 for the first, 9.66 for the second.

First: AAAAATAGGAACCAATATCCAACGTGACTTTATAAT [CACACA_negctrl_site1011]
Second: ATTTTTTTTTTTTTTTTTTTTTTTTTTTGATTTGTG [CACACA_negctrl_site1391]
The “gcPBM binding intensity (ln)” value of the first is higher: 9.77 for the first, 9.13 for the second.

Compared with “TGAAAAAATATAAAATATAAAATAAAAAATATAAAA [GTGCAC_negctrl_site536]”, “AATAAATAAATATATACACACATATATATATAATAT [CACACA_site921]” is higher in “gcPBM binding intensity (ln)” value: 9.71 for the first, 9.88 for the second.

First: TACAATCTAAAATACACACACACAAACATATATTTA [CACACA_site3702]
Second: ATATTAATATATATGTTTTATTACCATTTTATGTAT [CACACA_negctrl_site1761]
The “gcPBM binding intensity (ln)” value of the first is higher: 10.7 for the first, 9.77 for the second.

Going from “AAGATATATATAGAAAGTACTTATATTTGTATAATT [XGTACX_site8855]” to “ATGGTTTAGTTATATACACACTCGAAAATAACGACA [CACACA_site7520]”, the “gcPBM binding intensity (ln)” value falls from 9.89 to 9.65.

Going from “TATAAAAATATATTTACACACTATATATATCGAAAG [CACACA_site1700]” to “ATATATTTTCAAAAAAGTAAATCAAAATAAATATAT [TGCATGCA_negctrl_site319]”, the “gcPBM binding intensity (ln)” value falls from 9.69 to 9.22.

Compared with “TCCAAATACAACTACACACAAACAAAAATTATATAT [CACACA_site881]”, “AAAATTTTTCTTAAAGCATGCACAATTAAGAAGACG [TGCATGCA_site883]” is lower in “gcPBM binding intensity (ln)” value: 10 for the first, 9.55 for the second.

Compared with “TTTTTTTTAAGAGATAGTACATAAATATTATAATAT [XGTACX_site4685]”, “AAATAAAATTTTATGTGTACGCAAAAAGTTGTAAGC [XGTACX_site8911]” is higher in “gcPBM binding intensity (ln)” value: 9.33 for the first, 9.84 for the second.

First: TTAAAATTAATTCACCAGTATTAAAATAAAAACGAA [CACACA_negctrl_site1428]
Second: CATATATATATATATACACACATATATATTTTCTTT [CACACA_site1457]
The “gcPBM binding intensity (ln)” value of the first is lower: 9.6 for the first, 10.1 for the second.

Compared with “AAAAAAAAAAATATCACACACACATAAATATAAACA [CACACA_site7138]”, “AAAGTAGGCTTATATGCACACTTTGAAATATTATAA [CACACA_site5117]” is lower in “gcPBM binding intensity (ln)” value: 10.5 for the first, 9.78 for the second.

Compared with “ATTATACAAAATGGTAAGGAAAAGGAAATTTTTTTT [CACACA_negctrl_site1090]”, “CAATATTATATATATACACACATAATCTGTAAAAAC [CACACA_site1068]” is higher in “gcPBM binding intensity (ln)” value: 9.59 for the first, 9.83 for the second.

First: TTATTTTATTTTAAAAAAAACAATATAAATTCAAAG [GTGCAC_negctrl_site57]
Second: ATAAAAATTGATTATACACACGCGCACCCACAACAA [CACACA_site3536]
The “gcPBM binding intensity (ln)” value of the first is lower: 9.09 for the first, 10.3 for the second.

Compared with “TATTTATAAATTTACACACACACATGGGAACATAAA [CACACA_site5111]”, “ATGTCAAATTTTTGTGCACACATATATAGTTATTAT [CACACA_site2242]” is lower in “gcPBM binding intensity (ln)” value: 10.2 for the first, 10.1 for the second.

Compared with “TATATATATCAGCAATGTACACAATGCATATTATAT [XGTACX_site4836]”, “TAAGGATAAATAAAATGAAATGAAATAAATAAATGA [XGTACX_negctrl_site539]” is higher in “gcPBM binding intensity (ln)” value: 9.59 for the first, 9.67 for the second.

Compared with “TATTGTATTTAATAAACACACAATATTAAAAATATA [CACACA_site4725]”, “CATATATACACATACACACACACACGGACACGCACA [CACACA_site6910]” is higher in “gcPBM binding intensity (ln)” value: 9.5 for the first, 10.5 for the second.

Compared with “ATACACATATATGTGTGTACTCACCTTTTAATATGA [XGTACX_site4349]”, “ATCTATATCTATAATACACACTAAAGTAACAGAATA [CACACA_site7370]” is lower in “gcPBM binding intensity (ln)” value: 9.89 for the first, 9.69 for the second.

Going from “GTATCTCATTATTCGTGTACTAAACACATAAAAATA [XGTACX_site2262]” to “GATTTACAACACGAACGTACAGAACAAAAAGGAAAA [XGTACX_site6501]”, the “gcPBM binding intensity (ln)” value rises from 9.58 to 9.71.

First: TGTTTAAAGGAAAAGGAGTAGTCTATTATATTATCT [CACACA_negctrl_site858]
Second: AATGTAAAAGTAAACACACACATATATATATACATA [CACACA_site2484]
The “gcPBM binding intensity (ln)” value of the first is lower: 9.58 for the first, 10.2 for the second.

Compared with “TATAAAAATAAAAAAAGTACACATAAAAATATATAT [XGTACX_site5189]”, “AACATTTATAAATATTGTACATATAGATTTATATAT [XGTACX_site2662]” is lower in “gcPBM binding intensity (ln)” value: 9.78 for the first, 9.68 for the second.

First: AAAATAAAATAACGTTGTACAACATCATTTCTATAT [XGTACX_site5080]
Second: AACAATATATTGAATAGTACATATATATAAACATAT [XGTACX_site2811]
The “gcPBM binding intensity (ln)” value of the first is lower: 9.65 for the first, 9.83 for the second.

First: TTTAATTTGTTATACACACACAAAAAAAGTTATAAA [CACACA_site7779]
Second: TCTTTCTTATATTTATATAATTATATTTATTTTATA [GTGCAC_negctrl_site300]
The “gcPBM binding intensity (ln)” value of the first is lower: 9.84 for the first, 9.85 for the second.

First: GGAATACAGGAAAAAAGTACAGAAAATGGAATATTA [XGTACX_site5053]
Second: ATATAATGTTATAGAAGTACATGAAATACTTATTTA [XGTACX_site8850]
The “gcPBM binding intensity (ln)” value of the first is higher: 9.62 for the first, 9.58 for the second.

Going from “CATATAAAAAGACACACACACACATATATATATATA [CACACA_site940]” to “TTTTTTTTTCCCGTAAATATTGAGACAACCATAATG [CACACA_negctrl_site41]”, the “gcPBM binding intensity (ln)” value falls from 10.8 to 9.28.

First: TATTTTTATTTAGGACGTACAAAAATAAATCATATT [XGTACX_site1448]
Second: TTAAAAATATATATAACACACACATAATATATATAT [CACACA_site8811]
The “gcPBM binding intensity (ln)” value of the first is lower: 9.32 for the first, 10.5 for the second.

Compared with “TATAAATATTACGGTAGTACTATACATATATATAAT [XGTACX_site7442]”, “TTAGAAACATTGAAAGCATGCAATATTACTTTATAC [TGCATGCA_site522]” is lower in “gcPBM binding intensity (ln)” value: 9.71 for the first, 9.64 for the second.

Going from “TCCTTATATTTGCACACACACACAAGAAAATGAAAA [CACACA_site6613]” to “TATATAATATAATTGACATGCAACCATTTTCGTGAA [TGCATGCA_site458]”, the “gcPBM binding intensity (ln)” value falls from 10.3 to 9.58.

Going from “TCATTCATATGTTACACACACACACGCACATAAAAA [CACACA_site7514]” to “AAGTTGGAAAGGTTATGTACTTATTTTTTAAAATAA [XGTACX_site204]”, the “gcPBM binding intensity (ln)” value falls from 10.7 to 9.48.

First: ATAAAAAACTCAGAGCGTACATAATTTTTTCTATTT [XGTACX_site2803]
Second: TAACCATACATACATACACACACACCCACATATATA [CACACA_site8951]
The “gcPBM binding intensity (ln)” value of the first is lower: 9.72 for the first, 10.3 for the second.

First: TATATATTCAAATGTGCATGTAAAAAAAAAAAAAAG [TGCATGCA_site126]
Second: CAGGAGAGTAAAAGAGTGCGAATTATTATTTTGGAG
The “gcPBM binding intensity (ln)” value of the first is higher: 9.63 for the first, 9.48 for the second.

Compared with “GGCATATATATATGCACACATACATAAATACATGTG [CACACA_site5999]”, “TCCCTAGTATACCTTAGTACATATATTATTTTGCAC [XGTACX_site2174]” is lower in “gcPBM binding intensity (ln)” value: 10.2 for the first, 9.82 for the second.

First: AGACATTAATGAAGGTGTACATATATTTGACAGAAT [XGTACX_site655]
Second: ATAATATATATATATACGCACACTTATGTACGGATT [CACACA_site2120]
The “gcPBM binding intensity (ln)” value of the first is higher: 9.94 for the first, 9.8 for the second.

First: TTCTATATAATTCAAACATGCACAGGAAATATTATA [TGCATGCA_site290]
Second: AACAATGTTTTCTTGTGTACACATCATTAAAGAAAA [XGTACX_site4726]
The “gcPBM binding intensity (ln)” value of the first is higher: 9.68 for the first, 9.56 for the second.

First: AAGAAAAAAGGGGACAAGGCATATCTATATATACAT [TGCATGCA_negctrl_site172]
Second: TATGTAACACATACTTGTACATATATAATTTTTTTA [XGTACX_site6251]
The “gcPBM binding intensity (ln)” value of the first is higher: 9.77 for the first, 9.65 for the second.

Going from “ATACATATATATATATGTACATATGCACATATATAC [XGTACX_site7209]” to “TCTTTTGCCCAAAAAGGTACACACCACAATTTAAAT [XGTACX_site1482]”, the “gcPBM binding intensity (ln)” value falls from 9.69 to 9.59.

First: TATTGTATGGTAGGATATGATGTTATTTGTTATAAT [CACACA_negctrl_site202]
Second: ATATATATATCACGCACACACGAATTTTAAATATAT [CACACA_site5691]
The “gcPBM binding intensity (ln)” value of the first is lower: 9.9 for the first, 10.4 for the second.

Compared with “TTATTTTTACAATTTTAATAATAATACTAAAACAAA [XGTACX_negctrl_site538]”, “AATATATTATAATATACACACATATATGCTCTTTAA [CACACA_site4131]” is higher in “gcPBM binding intensity (ln)” value: 9.2 for the first, 9.95 for the second.

Going from “ATATATTATATATATTTTAAGTAATTTGCAAAAAAT [GTGCAC_negctrl_site361]” to “ATTTAAAAGAAATAATGTACGAATCATATTTGATAT [XGTACX_site1785]”, the “gcPBM binding intensity (ln)” value rises from 9.28 to 9.61.

First: ATAAGAAAAGGACACACACACAAAAAAAAAAAAAAA [CACACA_site7351]
Second: TGTTCTTATTTTATAAGCATATAATTAATCATAATG [CACACA_negctrl_site1493]
The “gcPBM binding intensity (ln)” value of the first is higher: 11.1 for the first, 9.52 for the second.

For “ATGTATATAATATTATGTACATATATGAAATATTTT [XGTACX_site8168]”, the “gcPBM binding intensity (ln)” value was 9.78.

— the supplement of paper PMC11417369
